Test results published in PMC3293247 (Biochemistry, 2012).

Molecular target: the molecule itself
Test: SEC-MALS

B1: Hsp27-D3 (Hsp27 S15D/S78D/S82D in the cysteine-free background) (natural protein)
chain: not shown
- stoichiometry N: 2
